Results from the RNAGym collection of RNA variant scans (doi:10.1073/pnas.2313332121).
Variants at the background level are over-represented here.

B1: TPR 5TU (parent)
chain: GGAUCUUCUCGAUCUAACAAAAAAGACAAAUCUGCCACAAAGCUUGAGAGCAUCUUCGGAUGCAGAGGCGGCAGCCUUCGGUGGCGCGAUAGCGCCAACGUUCUCAACUAUGACACGCAAAACGCGUGCUCCGUUGAAUGGAGUUUAUCAUG

Variants of: B1
Assay: polymerase ribozyme fitness, log enrichment relative to wild type (log ratio); higher = more active; in vitro selection for triplet polymerase activity
Method in brief: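 Both subunits of a heterodimeric triplet polymerase ribozyme were given their own mutant library, built by PCR and transcribed. Each library was annealed with a biotinylated primer, the partner subunit and triplets, incubated frozen at −7 °C, and its extended constructs gel-excised, captured on streptavidin beads and amplified by RT-PCR, all in one round done in triplicate. Fitness is the logarithm of genotype enrichment relative to wild-type enrichment, with replicates averaged by inverse-variance weighting. That logarithm is base 2, and Illumina-sequenced genotypes needed ≥10 input reads and ≥1 read per output.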

Variant | polymerase ribozyme fitness (log ratio)
GGAUCUUCUCGAUCUAACAAAAAAGACAAAUCUGCCACAAAGCUUGCGAGCAUCAUCGGAUGCAGAGACGGCAGCCUUCGCUGGCGCGAUAGAGCGAACGCUCUCAACAAUGACACGCAAAACGCGUGCUCCGUUGAAUGGAGUUUAUCAUG [A47C U55A G68A G81C C93A C96G U101C U109A] | ≤ -4.2
GGAUCUUCUCGAUCUAACAAAAAAGACAAAUCUGCCACAAAGCUUGCGAGCAUCUUCGGAUGCAGAGGCGGCAUCCUUCGCUGGCGCGAUAGCGCCAAGGUUCUCAAUUAUGACACGCAAAACGCGUGCUGCGUUGAAUGGAGUUUAUCAUG [A47C G74U G81C C99G C108U C131G] | ≤ -4.2
GGAUCUUCUCGAUCUAACAAAAAAGACAAAUCUGCCACAAAGCUUGCGUGCAUCUUCGGCUGCAGAGGCGGCAGUCUUCGGUGGGGCGAUAGCGCCAACGUUCUCAACUAUGACACGCAAAACGCUUGCUCCGUUGAAUGGAGUUUAUCAUG [A47C A49U A60C C75U C85G G126U] | ≤ -4.2
GGAUCUUCUCGAUCUAACAAAAAAGACAAAUCUGCCACAAAGCUUUAGAGGAUCUUCGGAUGCAGAGGCGGCAGCCUUCGGUGGCGCGAUAGUGCCAACGUUCUCAACUAUGACACGCAAAACGCGUGCUCCGUUGAAUGGAGUUUAUCAUG [G46U C51G C93U] | ≤ -4.2
GGAUCUUCUCGAUCUAACAAAAAAGACAAAUCUGCCACAAAGCUUGCGAGCAUCUUCGGAUGCAGAGGCGGCAGACUUCGGUGACGCGAUAGCGCCAACGUUCUCAACUAUGACACGCAAAAAGCGUGCUCCGUUGAAUGGAGUUUAUCAUG [A47C C75A G84A C123A] | ≤ -4.2
GGAUCUUCUCGAUCUAACAAAAAAGACAAAUCUGCCACAAAGCUUGCGAGCAUCUUCGGAUGCAGAGGCGGCAGCCUUCGGUGGGGCGAUAGCGUCAACGUUCUCAACUAUGACACGCAAAACGCGUGCUCCGUUGAACGGAGUUUAGCAUG [A47C C85G C95U U139C U148G] | ≤ -4.2
GGAUCUUCUCGAUCUAACAAAAAAGACAAAUCUGCCACAAAGCUUGCGUGCAACUACGGAUGCAGAGGCGGUAGCCUUCGGUGGCGCGAUAGCGCCAACGUUCUCAAUUAUGACACGCAAAACGCGUGCUCUGUUGAAUGGAGUUUAUCAUG [A47C A49U U53A U56A C72U C108U C132U] | ≤ -4.2
GGAUCUUCUCGAUCUAACAAAAAAGACAAAUCUGCCACAAAGCUUGCGAGCCUCUUCGGAUGCAGAGGCGGCAGCCUUAGGUGGGGCGAUAGCGCCAACGUUCUCAACUAUGACACGCAAAACGCGUGCUCCGUUGAAUGGAGUUUAUCAUG [A47C A52C C79A C85G] | ≤ -4.2
GGAUCUUCUCGAUCUAACAAAAAAGACAAAUCUGCCACAAAGCUUUAGAGCAUCUUCGGAUGUAGGGGCGGCAGCCUUGGGUUGCGCGAUAGCUCCAACGUUCUGAACUAUGACACGCAAAACGCGUGCUCCGUUGAAUGGAGUUGAUCAUG [G46U C63U A66G C79G G83U G94U C105G U146G] | ≤ -4.2
GGAUCUUCUCGAUCUAACAAAAAAGACAAAUCUGCCACAAAGCUUGCGAGCAUCUUCGGAUGCAGAGGCGGCAGCCUUCGGUGGCGCGACAGGGCCAACGUUAUCAACUAUGACACGCAAAACGCGUGCUCCCUUGAAUGGACUUUAUCAUG [A47C U90C C93G C103A G133C G143C] | ≤ -4.2
GGAUCUUCUCGAUCUAACAAAAAAGACAAAUCUGCCACAAAGCUUGCGAGCAUCUUCGGAUGCAGAGGCGGCAGCCUUCGGUGGAGCGAUAGGGCCUACGUUCUCAGCUAUGACACGCAAUACGCGUGCUCCGUUGAAUGGAGUUUAUCAUG [A47C C85A C93G A97U A107G A121U] | ≤ -4.2
GGAUCUUCUCGAUCUAACAAAAAAGACAAAUCUGCCACAAAGCUUGCGAGCAUCUUCGGAUGCAGAGGCGGCAGCCUUCGGUGGAGCGAUAGCGCGAACGUUCUCAACUAUGACACGCAAAACGCGUGCUCCGUUGAAUGGGGUUUAUCAUA [A47C C85A C96G A142G G152A] | ≤ -4.2
GGAUCUUCUCGAUCUAACAAAAAAGACAAAUCUGCCACAAAGCUUGCGAGCAUCUACGGAUGCAGAGGCGGCAGCCUUCGGUGGCGAGAUAGCGCCGACGUUCUCAACUAUGACACGCAAAACGCGUGCUCCGUUGAAUGGAGUUUAUCAUG [A47C U56A C87A A97G] | ≤ -4.2
GGAUCUUCUCGAUCUAACAAAAAAGACAAAUCUGCCACAAAGCUUUAGAGCAUCUUCGGAUGCAGAUGUGGCAGCCUUCGGAGGCGCGAUAGCGCCAACGUUCUCAACUAUGACACGCAAAACGCGUGCUCCGUUUACUGGAGAUUAUCAUG [G46U G67U C69U U82A G136U A138C U144A] | ≤ -4.2
GGAUCUUCUCGAUCUAACAAAAAAGACAAAUCUGCCACAAAGCUUUAGAGCAUCUUCGGAUGCAGAGGCGGCAGGCUUCGGUGGCGCGCUAGCGCCAAUGUUCUCAACUAUGUCACGCAAAACGCGUGCUCCAUUGAAUUAAGUUUAUCAUG [G46U C75G A89C C99U A113U G133A G140U G141A] | ≤ -4.2
GGAUCUUCUCGAUCUAACAAAAAAGACAAAUCUGCCACAAAGCUUGCGAGCAUCUUCGGAUGCAGAGGCGCCAGCCUUCGGUGGCGCGAUAGCGACAACGUUCUCAACUAUGACACGCAAAACGGGUGCUCCGUUGAAUGGAGUUUAUCAUG [A47C G71C C95A C125G] | ≤ -4.2
GGAUCUUCUCGAUCUAACAAAAAAGACAAAUCUGCCACAAAGCUUGCCAGCAUCUUCGGAUGCAGAGGCGGCCGCCUUCGGUGGUGCGAUAGCGCUAAGGCUCUCAACUAUGACACGCAAAACGCGUGCUCCGUUGAAUGGAGUUUAUCAUG [A47C G48C A73C C85U C96U C99G U101C] | ≤ -4.2
GGAUCUUCUCGAUCUAACAAAAAAGACAAAUCUGCCACAAAGCUUGCGACCAUCUUCGGAUGCAGAGGCGGCAGCCUUCGGUGGCGCGAUAGCGCGAAAGUUCUCAACUAUGACACGCAAAACGCGUGCUCCGUUGAAUGGAGUUUAUCAUG [A47C G50C C96G C99A] | ≤ -4.2
GGAUCUUCUCGAUCUAACAAAAAAGACAAAUCUGCCACAAAGCUUGCGAGCAUCUUCUGAUGCAGAGGCGGCAGCCGUCGGUGGCGCGAUAGUGCCAACGUUCACAACUAUGACACGCAAAACGCGUGCUCCGUUGAAUGGAGUUUAUCAUG [A47C G58U U77G C93U U104A] | ≤ -4.2
